From PubChem BioAssay AID1458 (National Center for Advancing Translational Sciences (NCATS), 2008)
About 5,900 (2.8%) of roughly 210,000 compounds were called active. The shares of active, inactive and inconclusive entries below differ from those in the screen. The call rests on the fitted dose curve; in most records, active means well fitted activation curve with a large enough effect; inconclusive means small, poorly fitted or top-dose-only effect; inactive means no such curve, though single readings can be large or run the other way. Potencies beside an inconclusive call are fits to weak or partial responses and may not hold up.
Potency means the concentration at half of the fitted maximal effect; tags describe the fitted curve by direction and shape.

Test: qHTS Assay for Enhancers of SMN2 Splice Variant Expression; further: nearly all actives have a fitted effect of over 55% in size; on activity change, positive = activation: % of control where 0% means no effect
Conditions: HEK293 SMN2-luciferase splicing reporter, luminescence, 30-36 h; activity change, positive = activation: at 46.1 µM (top of the series)
Source text: NIH Chemical Genomics Center [NCGC] NIH Molecular Libraries Probe Production centers Network [MLPCN] MLPCN Grant: R03 MH084179-01 Assay Submitter (PI): Elliot Androphy NCGC Assay Overview: Spinal muscular atrophy (SMA) is caused by insufficient levels of the survival motor neuron protein SMN. The SMN locus on chromosome 5q13 contains two inverted copies of SMN called SMN1 and SMN2 which are 99% identical at the amino acid level. SMN1 is a fully functional protein and SMN2 skips exon 7 90% of the time. Skipping of exon 7 produces non-functional protein product. 10% of the SMN2 protein includes exon 7 and is fully functional. In the SMA disease state, mutations in the SMN1 locus are the cause of the disease state. Because only 10% of SMN2 is of the fully functional form, it is not sufficient to overcome the deficiency produced by the loss of the SMN1 product. A therapy that either increase the amount of SMN2 product made or to increase the inclusion of exon 7 has been proposed for the treatment of SMA. We have designed an assay to identify small molecules that can increase the amount of functional SMN2 product by appending a luciferase reporter gene after the native SMN2 gene, such that inclusion of exon 7 in the expressed product places the luciferase sequence in frame, thus generating functional luciferase enzyme.
NCGC Assay Protocol Summary: This screen utilizes a luciferase reporter gene assay, combining the promoter and splicing based cassettes in tandem with the major portion of the native SMN2 cDNA, and then transfected into HEK293 cells. Compounds that increase luciferase signal presumably enhance expression of the functional SMN2 splice variant. Passaging media contained DMEM w/ glutamax (+phenol red) 10% FCS, 1x pen/strep, 200 ug/ml hygro, 1x sodium pyruvate. Assay media contained DMEM w/ glutamax (-phenol red) 10% FCS, 1x pen strep, 1x pyruvate Sequence, Parameter, Value, Description (1) Cells, […], 2000 cells/well, 1536 TC treated White solid bottom plate (2) Time, 10-12 hours, 37C 5% CO2 (3) Compound, 23 nl, MLSMR Library (4) Control Compound, 23 nL, Sodium butyrate st 4.5mM (final) conc (5) Time, 30-36 hours, 37C 5% CO2 (6) Reagent, 3 ul, One Glo (TM) from Promega (7) Time, 5-15 minutes, Room temp (8) Detector, Viewlux: luminescent read, 60 second integration, high speed 2x binning Keywords: Spinal muscular atrophy, SMA, SMN2, high throughput screening, MLSMR, MLPCN, NIH Roadmap, qHTS and NCGC
For `CCOC(=O)c1c(C)sc(Sc2ccc(Cl)cc2[N+](=O)[O-])c1OC`, the Potency was “inactive”. For `Nc1nonc1-c1noc(CCCCCN2C(=O)c3ccccc3C2=O)n1`, the Potency was inconclusive: 12.6 µM [activator, partial curve]. In the case of `Oc1cccc(/C=N/NC(=S)NCCN2CCOCC2)c1O`, the Potency is reported as inconclusive: 11.2 µM [activator, partial curve, poor fit]. For `Cc1cc2n(n1)C(c1ccc(N(C)C)cc1)Nc1ccccc1-2` (stereo not given), the Potency was “inactive”. For `Cc1ccc(-c2[nH]ncc2/C=N/n2c(COc3ccccc3C)nc3ccccc3c2=O)cc1`, the Potency was inconclusive: 0.631 µM [activator, single point]. In the case of `CC(C)(C)NC(=O)NC(=O)CN1CCN(C(c2ccccc2)c2ccccc2)CC1`, the Potency is reported as “inactive”. For `O=C(NC(=S)NCC1CCCO1)c1ccc(Cl)cc1` (stereo not given), the Potency was inconclusive: 11.2 µM [activator, partial curve]. With `CCN(CC)CCCNC(=O)c1cn(C)c2ccc(S(=O)(=O)N3CCOCC3)cc2c1=O` the Potency was “inactive”. For `O=C(Cn1ccc2ccccc2c1=O)NCCC(=O)N1CCN(c2cccc(C(F)(F)F)c2)CC1`, the Potency was inconclusive: 35.5 µM [activator, single point]. In the case of `OC(CN1CCNCC1)Cn1c2ccc(Br)cc2c2cc(Br)ccc21` (stereo not given), the Potency is reported as “inactive”. In the case of `O=C(CNC(=O)c1ccccn1)N/N=C/c1ccc2c(c1)OCO2`, the Potency is reported as “inactive”. With `Clc1ccccc1OCc1nc(-c2ccc(Br)o2)no1` the Potency was inconclusive: 31.6 µM [activator, single point]. For `CC(/C=N/NC(=O)CSc1ccccn1)=C\c1ccc(C(C)C)cc1`, the Potency was inconclusive: 1.41 µM [activator, full curve, poor fit]. In the case of `COC(=O)/C(C#N)=C1/C=Cc2ccccc2N1`, the Potency is reported as inconclusive: 35.5 µM [activator, single point]. With `Cc1ccc(C(=O)NCC2CCCO2)o1` (stereo not given) the Potency was inconclusive: 22.4 µM [activator, partial curve, poor fit]. In the case of `COc1ccc(OC)c(C2CC(=O)Nc3cc(OC)c(OC)c(OC)c32)c1` (stereo not given), the Potency is reported as inconclusive: 11.2 µM [activator, partial curve]. In the case of `Cc1sc2c(c1C)CN(Cc1ccncc1)CN2C(=O)c1ccco1`, the Potency is reported as “inactive”. In the case of `O=C(NCc1ccco1)c1cccn2c(=O)c3cc4ccccc4cc3nc12`, the Potency is reported as inconclusive: 17.8 µM [activator, partial curve]. In the case of `CC(c1ccccc1)n1cc(C(=O)NCCN2CCOCC2)nn1` (stereo not given), the Potency is reported as inconclusive: 0.447 µM [activator, single point]. In the case of `Cn1c(=O)c2c(nc(C(=N)SCC(=O)O)n2C)n(C)c1=O`, the activity change, positive = activation is reported as inactive: -1.84% [at 9.22 µM]. For `Cc1nnc(NC2=NCCC2)o1`, the Potency was inconclusive: 0.355 µM [activator, full curve]. For `O=C(NCc1ccco1)c1cc(-c2ccccc2)nc2ccccc12`, the Potency was inconclusive: 0.0032 µM [activator, full curve, poor fit]. For `C=C(C)[C@H]1CC[C@]2(CO)CC[C@]3(C)[C@@H](CC[C@H]4[C@@]5(C)CC[C@@H](O)C(C)(C)[C@@H]5CC[C@@]43C)[C@H]12`, the Potency was “inactive”. For `Cc1cccc(/C=C2/C(=O)/C(=C/c3ccccc3C)C3CCC2N3C)c1` (stereo not given), the Potency was “inactive”. With `C=C(C(=O)O)[C@@H]1CC[C@@]2(C)CCC[C@](C)(O)[C@@H]2C1` the Potency was inconclusive: 3.16 µM [activator, single point]. For `CN(c1ccc(C(=O)NCCC2=CCCCC2)cc1)S(C)(=O)=O`, the Potency was active: 11.2 µM. In the case of `CCOC(=O)/C=c1\s/c(=C\c2c(OCC)ccc3ccccc23)c(=O)n1CC(=O)NCC1CCCO1` (stereo not given), the Potency is reported as inconclusive: 11.2 µM [activator, partial curve, poor fit]. In the case of `CCCC(=O)C1=C(O)C(C(=O)OC)C(C)(C)CC1=N` (stereo not given), the Potency is reported as inconclusive: 4.47 µM [activator, single point]. With `CCCC(=O)Oc1ccc(N(C(=O)CCC)S(=O)(=O)c2cccs2)cc1` the Potency was “inactive”. With `COc1cc(CN(C(=O)c2ccco2)c2ccc(C)cc2)ccc1O` the Potency was inconclusive: 28.2 µM [activator, partial curve, poor fit]. For `CN1CCN(C(=S)Nc2ccc(Cl)cc2)CC1`, the Potency was “inactive”. With `Cc1ccc(C(C(=O)NCc2ccco2)N(CCc2ccccc2)C(=O)Cn2nnc3ccccc32)o1` (stereo not given) the Potency was inconclusive: 35.5 µM [activator, single point]. For `Cc1cccc(Nc2nc(N)c([N+](=O)[O-])c(N3CCOCC3)n2)c1`, the Potency was inconclusive: 0.794 µM [activator, full curve, poor fit]. For `C=C[C@]1(C)Cc2occ(C)c2C[C@H]1C(=C)C(=O)O`, the Potency was inconclusive: 0.0032 µM [activator, full curve, poor fit]. In the case of `CCn1nc(C(=O)OC(C(=O)c2c[nH]c3ccccc23)c2ccccc2)c2ccccc2c1=O` (stereo not given), the Potency is reported as inconclusive: 0.0631 µM [activator, partial curve, poor fit]. For `CCCC(c1nnnn1C(C)(C)CC)N(CCCO)Cc1cc2cc(C)cc(C)c2[nH]c1=O` (stereo not given), the Potency was inconclusive: 0.0447 µM [activator, full curve, poor fit]. With `COc1ccc(NC(=O)CCS(=O)(=O)c2nc(-c3cccs3)cc(C(F)(F)F)n2)cc1OC` the Potency was inconclusive: 35.5 µM [activator, single point]. For `Cc1ccccc1NC(=S)c1nc2ccccc2[nH]1`, the Potency was “inactive”. With `CCCCC(=O)Nc1nnc(C2=COCCO2)o1` the Potency was inconclusive: 22.4 µM [activator, partial curve]. For `CCCC(=O)Nc1cccc(NC(=O)c2ccc3c(c2)OCO3)c1`, the Potency was inconclusive: 2 µM [activator, full curve]. With `COc1ccc(C(=O)/C=C2\Sc3ccccc3N2C)cc1` the Potency was active: 7.94 µM. In the case of `COc1cc2c(cc1OC)CN(C(=O)CSc1nnc(C)s1)CC2`, the Potency is reported as inconclusive: 2 µM [activator, full curve, poor fit]. In the case of `O=c1[nH]c(NCCO)nc2ncn(Cc3ccccc3)c12`, the Potency is reported as inconclusive: 0.0089 µM [activator, full curve, poor fit]. With `CCc1ccc(NC(=O)c2cccnc2)cc1` the Potency was inconclusive: 35.5 µM [activator, single point]. For `Cc1cc2nc(-c3ccc(SCC(=O)N4CCOCC4)nc3)[nH]c2cc1C`, the Potency was inconclusive: 0.0141 µM [activator, full curve, poor fit]. In the case of `Cc1ccc2sc(NC(=O)CSc3nc(C)cc(C)c3C#N)nc2c1`, the Potency is reported as active: 2.51 µM. With `Cc1cc(=O)n2[nH]c(-c3sccc3-n3c(C)ccc3C)cc2n1` the Potency was inconclusive: 31.6 µM [activator, single point]. For `O=C(COc1ccc(Cl)cc1[N+](=O)[O-])NC1CCCCC1`, the Potency was active: 11.2 µM. For `O=C(O)CCc1ccc(-c2cccs2)n1NC(=O)c1ccco1`, the Potency was inconclusive: 0.0032 µM [activator, full curve, poor fit]. In the case of `CCCCN(C)CCNC(=O)c1ccc2c(=O)n(CCc3ccccc3)c(=O)[nH]c2c1`, the Potency is reported as “inactive”. With `CCOc1cc(C(=O)Nc2cc(C)on2)cc(OCC)c1OCC` the Potency was inconclusive: 2.82 µM [activator, full curve, poor fit]. For `COc1ccccc1CN=c1c([N+](=O)[O-])nn(-c2ccc3c(c2)OCCO3)n1O`, the Potency was inconclusive: 0.398 µM [activator, full curve, poor fit]. In the case of `COC(=O)C1=C(c2ccccc2)c2ccccc2S(=O)(=O)N1CC(=O)Nc1cccc(C(C)=O)c1`, the Potency is reported as “inactive”. In the case of `COc1ccc(Nc2nnc(SCC(=O)Nc3cc(C)on3)s2)cc1`, the Potency is reported as inconclusive: 0.141 µM [activator, full curve]. With `Cc1noc(C)c1C(=O)NCCC1=CCCCC1` the Potency was inconclusive: 14.1 µM [activator, single point]. In the case of `CCCc1cc(=O)[nH]c(/N=C(/NC(=O)C(C)N2C(=O)c3ccccc3C2=O)Nc2ccccc2)n1` (stereo not given), the Potency is reported as inconclusive: 0.355 µM [activator, full curve]. For `CC(=O)Nc1nnc(SCc2ccc(F)cc2)s1`, the Potency was inconclusive: 25.1 µM [activator, single point]. In the case of `CCC(O)CNC(=O)NC(=C(Cl)Cl)c1ccc(C)c(F)c1` (stereo not given), the Potency is reported as “inactive”. With `COc1ccccc1CNCC(=O)Nc1ccc(N2CCOCC2)cc1` the Potency was inconclusive: 5.62 µM [activator, single point]. In the case of `Cc1cc(N)n(-c2cc(C)c3ccccc3n2)n1`, the Potency is reported as active: 11.2 µM. With `COc1ccc(Nc2nnc(SCc3cn4c(C)cccc4n3)s2)cc1` the Potency was inconclusive: 25.1 µM [activator, single point]. In the case of `CC(C)(C)c1ccc(S(=O)(=O)NCCOCC(F)(F)C(F)F)cc1`, the Potency is reported as inconclusive: 0.501 µM [activator, single point]. In the case of `CCCCC(=O)Nc1ccc(C(=O)Nc2ccc3c(c2)OCO3)cc1`, the Potency is reported as inconclusive: 5.62 µM [activator, single point]. With `O=C(Nc1cnc2ccccc2c1)c1cccc(-n2cnnn2)c1` the Potency was inconclusive: 11.2 µM [activator, partial curve, poor fit]. In the case of `Cc1ccc(-c2cc(C(=O)Nc3nccs3)c3ccccc3n2)o1`, the Potency is reported as “inactive”. For `Fc1ccc(C(c2nnnn2Cc2cccs2)N2CCN(C3CCCCC3)CC2)cc1` (stereo not given), the Potency was inconclusive: 4.47 µM [activator, partial curve]. In the case of `COc1ccc(C2=NCCn3cccc32)c(OC)c1`, the Potency is reported as “inactive”. In the case of `CS(=O)(=O)N1CCN(c2ccc(NC(=O)c3ccc(-c4ccc(Cl)cc4)o3)cc2)CC1`, the Potency is reported as “inactive”. For `Fc1ccccc1CSc1ccc(-c2ccco2)nn1`, the Potency was active: 17.8 µM. With `CCCC(=O)Nc1ccc2oc(-c3cccnc3)nc2c1` the Potency was inconclusive: 17.8 µM [activator, partial curve, poor fit].
